{
  "source": "PubChem BioAssay AID1671194",
  "about": "(National Center for Advancing Translational Sciences (NCATS), 2021)",
  "note": "About 240 (0.17%) of roughly 140,000 compounds were called active. Inconclusive means that the source gave no clear call. Such entries were picked first, then a sample of the others. The call rests on the fitted dose curve; in most records, active means well fitted inhibition curve with a large enough effect; inconclusive means small, poorly fitted or top-dose-only effect; inactive means no such curve, though single readings can be large or run the other way. A potency beside an inconclusive call is a rough fit, not a confirmed value. Potency means the concentration at half of the fitted maximal effect; tags describe the fitted curve by direction and shape.",
  "data": [
    {"assay": "Primary qHTS assay for inhibitors of alpha-synuclein gene (SNCA) expression; further: nearly all actives have a fitted effect of over 45% in size", "details": "HEK-293 SNCA-luciferase knock-in, luminescence, 24 h; series mostly up to 57.2 µM", "values": [
      {"compound": "COc1cc(NC(=O)Cn2nc3c(cc2=O)CN(C(C)=O)CC3)cc(OC)c1", "Potency": "inactive"},
      {"compound": "CCCCNc1ccc2nncn2n1", "Potency": "inconclusive: 5.62 µM [inhibitor, full curve, poor fit]"},
      {"compound": "Cc1cc(C(=O)N2CCCCC2)c2c(C3CCNC3)noc2n1", "note": "(centres undefined)", "Potency": "inactive"},
      {"compound": "Cn1cc(-c2ccc3c(n2)CN(Cc2ccc(F)cc2)C(=O)CO3)cn1", "Potency": "inconclusive: 31.6 µM [inhibitor, single point]"},
      {"compound": "O=C(c1cc(F)ccc1Cl)N1CCN(c2cc(-c3ccc(F)cc3)[nH]n2)CC1", "Potency": "inconclusive: 11.2 µM [inhibitor, single point]"},
      {"compound": "CN1C(=O)c2ccccc2CC12CCCN(C(=O)c1ccc(Cl)cc1)C2", "note": "(centres undefined)", "Potency": "inactive"},
      {"compound": "CCc1ccccc1Nc1nn2c(=O)c3ccc(C(=O)NCc4ccccc4Cl)cc3nc2s1", "Potency": "inactive"},
      {"compound": "O=C(O)C[C@H](O)C[C@H](O)C=Cc1c(C2CC2)nc2ccccc2c1-c1ccc(F)cc1", "Potency": "inconclusive: 15.2 µM [inhibitor, single point]"},
      {"compound": "COc1ccccc1-c1cccc(CN2CCCC(C(=O)NCc3cccc(F)c3)C2)c1", "note": "(centres undefined)", "Potency": "inconclusive: 12.6 µM [inhibitor, partial curve, poor fit]"},
      {"compound": "CC(=O)Nc1ccc(NC(=O)CN2C(=O)NC3(CCC(C(C)(C)C)CC3)C2=O)cc1", "note": "(centres undefined)", "Potency": "inconclusive: 3.55 µM [inhibitor, single point]"},
      {"compound": "Cc1cccc(C(=O)Nc2c(N3CCCCC3)c(-c3cccc(F)c3)nn2C)c1", "Potency": "inactive"},
      {"compound": "NS(=O)(=O)c1ccc2nc(NC(=O)COc3ccccc3)sc2c1", "Potency": "inconclusive: 39.8 µM [inhibitor, single point]"},
      {"compound": "CN1CCC(C(=O)N2Cc3ccccc3CC3(CCCN(CC4CCNCC4)C3)C2)CC1", "note": "(centres undefined)", "Potency": "inconclusive: 5.62 µM [inhibitor, single point]"},
      {"compound": "CCOc1ccc(Nc2c(S(=O)(=O)c3ccccc3)cnc3ccccc23)cc1", "Potency": "inconclusive: 39.8 µM [inhibitor, single point]"},
      {"compound": "Cc1ccc(NC(=O)c2nc(S(C)(=O)=O)ncc2N(Cc2ccco2)Cc2ccco2)cc1C", "Potency": "inactive"},
      {"compound": "COc1ccc(Cl)cc1NC(=O)NCC1CCN(Cc2ccccc2F)CC1", "Potency": "inconclusive: 25.1 µM [inhibitor, single point]"},
      {"compound": "COc1ccc(-c2ccc3nnc(CNC(=O)Cc4cccc(OC)c4)n3n2)cc1", "Potency": "inactive"},
      {"compound": "C[C@@]1(O)CCN(C(=O)c2cc(C(F)(F)F)ccc2Cl)C[C@@H]1O", "Potency": "inactive"},
      {"compound": "Nc1ccn([C@@H]2O[C@H](CO)[C@H](O)C2(F)F)c(=O)n1", "Potency": "inconclusive: 0.0341 µM [inhibitor, full curve, poor fit]"},
      {"compound": "NC(=O)C1CCN(C(=O)[C@H]2C[C@@H](O)[C@H](O)[C@@H]3N=C(Nc4cccc(C(F)(F)F)c4)S[C@@H]32)CC1", "Potency": "inactive"},
      {"compound": "CC(C)C(=O)N1Cc2ccccc2CC2(CCCN(Cc3ccccn3)C2)C1", "note": "(centres undefined)", "Potency": "inconclusive: 5.62 µM [inhibitor, single point]"},
      {"compound": "CCN1C(=O)C2CC3(CCN(C(=O)Nc4ccccc4F)CC3)CN2C1=O", "note": "(centres undefined)", "Potency": "inactive"},
      {"compound": "O=C(Nc1ccc2c(N3CCOCC3)ncnc2c1)c1ccccc1C(F)(F)F", "Potency": "inconclusive: 7.08 µM [inhibitor, full curve]"},
      {"compound": "Cc1ccccc1-c1noc(-c2ccc(NC(C)c3cnn(C)c3)nc2)n1", "note": "(centres undefined)", "Potency": "inconclusive: 3.55 µM [inhibitor, partial curve, poor fit]"},
      {"compound": "CCN1C(=O)CCN(Cc2cn(C)c3ccc(OC)cc23)CC12CCOCC2", "Potency": "inconclusive: 39.8 µM [inhibitor, single point]"},
      {"compound": "O=C1NC(=NC2CCCCC2)C2(CCN(Cc3ccc(F)cc3)C2)N1c1cc(F)cc(F)c1", "note": "(centres undefined)", "Potency": "inconclusive: 12.6 µM [inhibitor, partial curve, poor fit]"},
      {"compound": "COCCCNC(=O)c1cc(-c2ccc(OC)cc2)nc2c1cnn2C", "Potency": "inactive"},
      {"compound": "CCOC(=O)C1(Cc2cccc(C(F)(F)F)c2)CCN(Cc2cn(CC)nc2C)CC1", "Potency": "inconclusive: 39.8 µM [inhibitor, single point]"},
      {"compound": "CC(=O)N1CCN(c2nc3c(s2)CC(C(=O)Nc2cc(Cl)ccc2F)CC3)CC1", "note": "(centres undefined)", "Potency": "inconclusive: 39.8 µM [inhibitor, single point]"},
      {"compound": "CCOc1ccccc1CNC(=O)c1c(C)sc2ccn(CC(C)C)c(=O)c12", "Potency": "inconclusive: 39.8 µM [inhibitor, single point]"},
      {"compound": "COc1ccc(CN2CCC3(C2)C(=NC2CCCC2)NC(=O)N3c2cc(F)cc(F)c2)cc1", "note": "(centres undefined)", "Potency": "inconclusive: 17.8 µM [inhibitor, partial curve, poor fit]"},
      {"compound": "COc1ccc(NC(=O)/C=C\\C(=O)N(c2ccc(C(C)C)cc2)C(C(=O)NCc2ccco2)c2ccc(F)cc2)cc1", "note": "(centres undefined)", "Potency": "inconclusive: 0.794 µM [inhibitor, partial curve, poor fit]"},
      {"compound": "COc1ccc(-c2cc(N3CCC(NC(=O)c4cc(Cl)ccc4F)CC3)n[nH]2)cc1", "Potency": "inconclusive: 6.31 µM [inhibitor, single point]"},
      {"compound": "O=C1OCCCN1C1CCN([S+](=O)([O-])c2cccc(C(F)(F)F)c2)CC1", "Potency": "inactive"},
      {"compound": "N#Cc1cccc(C(=O)NC2CCN(c3cc(-c4ccc(F)cc4)[nH]n3)C2)c1", "note": "(centres undefined)", "Potency": "inconclusive: 1.78 µM [inhibitor, partial curve, poor fit]"},
      {"compound": "Cc1cccc(NC(=O)Cc2csc(COc3cccc(C)c3)n2)c1", "Potency": "inactive"},
      {"compound": "Cc1cc(C)cc(NC(=O)CCc2c(C)nc3c4cccnc4nn3c2C)c1", "Potency": "inconclusive: 0.891 µM [inhibitor, partial curve, poor fit]"},
      {"compound": "C#CCNC(=O)[C@@H]1Cc2cn(CC=C)c3cccc(c23)[C@H](CC(C)C)N1", "Potency": "inconclusive: 56.2 µM [inhibitor, single point]"},
      {"compound": "Cc1ccc2nc(Cl)c3cc(C(=O)NC4CCCCCC4)sc3c2c1", "Potency": "inconclusive: 20 µM [inhibitor, partial curve, poor fit]"},
      {"compound": "COCCOCC(=O)N1CCC(N2C(=O)C3(CCCCC3)C2c2ccccc2)CC1", "note": "(centres undefined)", "Potency": "inconclusive: 39.8 µM [inhibitor, single point]"},
      {"compound": "Cc1ccccc1Nc1c(-c2ccncc2)nc2ccc(Cl)cn12", "Potency": "inconclusive: 39.8 µM [inhibitor, single point]"},
      {"compound": "CN1[C@@H](CCC(=O)N2CCN(c3ccccn3)CC2)CNC(=O)[C@@H]2[C@H]1CCN2Cc1cccs1", "Potency": "inactive"},
      {"compound": "COc1ccc(NC(=O)c2c(C)oc3ccc(O)c(CN4CCN(Cc5ccccc5)CC4)c23)cc1", "Potency": "inconclusive: 20 µM [inhibitor, single point]"},
      {"compound": "CCOC(=O)c1ccc(N2C(=O)c3n[nH]c(-c4cccs4)c3C2c2ccc(Cl)cc2Cl)cc1", "note": "(centres undefined)", "Potency": "inconclusive: 31.6 µM [inhibitor, single point]"},
      {"compound": "CCOC1CCOC2(CCN(C(=O)c3ccc(C)nc3)CC2)C1", "note": "(centres undefined)", "Potency": "inactive"},
      {"compound": "Cc1cc(C)cc(-c2ccc(CN3CCCC(N[S+](=O)([O-])c4cccc(C(F)(F)F)c4)C3)cc2)c1", "note": "(centres undefined)", "Potency": "inconclusive: 4.47 µM [inhibitor, single point]"},
      {"compound": "COc1ccc(-c2cc(N3CCC(NC(=O)c4ccc(F)cc4Cl)C3)n[nH]2)cc1", "note": "(centres undefined)", "Potency": "inactive"},
      {"compound": "CCCn1c2ccccc2c2cnn(CC(=O)NC(CCSC)C(=O)OC)c(=O)c21", "note": "(centres undefined)", "Potency": "inconclusive: 3.55 µM [inhibitor, full curve, poor fit]"},
      {"compound": "COc1ccccc1C(O)c1nc(Nc2ccc(C(C)C)cc2)n[nH]1", "note": "(centres undefined)", "Potency": "inconclusive: 56.2 µM [inhibitor, single point]"},
      {"compound": "CC(=O)c1cc(CN2C[C@@H]3CN(C(C)=O)C[C@]3(C(=O)O)C2)n(C)c1", "Potency": "inconclusive: 10 µM [inhibitor, partial curve]"},
      {"compound": "CC(=O)N1CCCc2cc(S(=O)(=O)N3CCCC(C(=O)N4CCN(c5cc(C)ccc5C)CC4)C3)ccc21", "note": "(centres undefined)", "Potency": "inconclusive: 25.1 µM [inhibitor, partial curve, poor fit]"},
      {"compound": "Cc1cc(C)cc(-c2ccc(CN3CCCC(NC(=O)c4ccccc4)C3)cc2)c1", "note": "(centres undefined)", "Potency": "inconclusive: 1.41 µM [inhibitor, full curve]"},
      {"compound": "Cc1cccc(NC(=O)C23CCC=C2N(C2CCCC2)C(=O)CC3)c1", "note": "(centres undefined)", "Potency": "inactive"},
      {"compound": "COc1ccc(S(=O)(=O)Nc2ccc(C)n(CC(=O)N(C)Cc3ccco3)c2=O)cc1", "Potency": "inconclusive: 35.5 µM [inhibitor, single point]"},
      {"compound": "CCn1ncc(CN2CCC(C3CCN(C)CC3)C2)c1C", "note": "(centres undefined)", "Potency": "inconclusive: 39.8 µM [inhibitor, single point]"},
      {"compound": "COCC1CN(C(=O)c2ccc(C)c(C)c2)CC12CCNCC2", "note": "(centres undefined)", "Potency": "inconclusive: 39.8 µM [inhibitor, partial curve, poor fit]"},
      {"compound": "Cc1nn(C)c(C)c1C(=O)NCCn1c(C)cnc1C1CCC1", "Potency": "inconclusive: 11.2 µM [inhibitor, partial curve, poor fit]"},
      {"compound": "COCCN[C@@H]1C[C@@H]2c3[nH]c4ccccc4c3C[C@@H](C(=O)OC)N2[C@H](c2ccccc2)C1", "Potency": "inactive"},
      {"compound": "Cc1nn2c(c1-c1ccccc1[S+](C)(=O)[O-])N(CCC(C)C)CCC2", "Potency": "active: 3.16 µM"},
      {"compound": "CC(=O)N1CCn2ncc(C(=O)N3CCOCC3)c2C1", "Potency": "inconclusive: 22.4 µM [inhibitor, partial curve, poor fit]"},
      {"compound": "CNC(=O)[C@H]1C[C@H](Oc2ccccc2)CN1C(=O)Nc1cccc(C)c1", "Potency": "inactive"},
      {"compound": "COc1ccc(Nc2ccnc(N3CCC(NC(=O)Cc4ccc(C(F)(F)F)cc4)CC3)n2)cc1", "Potency": "inconclusive: 14.1 µM [inhibitor, partial curve, poor fit]"},
      {"compound": "F[C@@H]1CN(Cc2ccc(C(F)(F)F)cc2)C[C@@H]1OCc1nc2ccncc2[nH]1", "Potency": "inactive"},
      {"compound": "c1ccc(CCN2CCNc3cc(Nc4ccc(N5CCOCC5)cc4)ncc3C2)cc1", "Potency": "inactive"}
    ]}
  ]
}
